# Data: PubChem BioAssay (Tox21)
# Values joined by “and” are separate entries in the source; they are usually repeats but may differ in a detail not shown here. Equal values may be shown once. The inconclusive results got no clear call from the source; some entries with a clear call stand among them for comparison. For part of these data: Potencies beside an inconclusive call are fits to weak or partial responses and may not hold up. Some compounds were tested as several samples or in several runs, with calls that do not always agree. Active and inactive are the calls of the source. Calls come from the whole dose curve; as a rule, active = well fitted curve in the direction sought with a large enough effect in the repeat runs; inconclusive = weak or mixed curves; inactive = no such curve, though single readings can be large; an effect the other way counts as inactive or inconclusive.
# Key:
# [1] = Human pregnane X receptor (PXR) small molecule agonists, qHTS cell viability counter screen (AID 1346977); note: nearly all actives have a fitted effect of over 50% in size; note: potency is the fitted concentration of half-maximal effect
# How it was run: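 Viability counter screen: CellTiter-Fluor signal in PXR-Luc HepG2 cells, 24hr compound exposure, 37C, 5% CO2.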
# [2] = target: Nuclear receptor subfamily 1 group I member 2 (Homo sapiens) (UniProt O75469); test: Human pregnane X receptor (PXR) small molecule agonists, qHTS assay (AID 1346982); note: nearly all actives have a fitted effect of over 35% in size; note: potency is the fitted concentration of half-maximal effect
# How it was run: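 We seeded PXR-Luc HepG2 cells in assay medium containing 5% charcoal-stripped FBS, added compounds 5 hr later, incubated 24 hr, and read luminescence with ONE-Glo reagent.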
# [3] = target: Cytochrome P450 2C19 (Homo sapiens) (UniProt P33261); test: Cytochrome P450 Family 2 Subfamily C Member 19 (CYP2C19) small molecule antagonists: luciferase reporter qHTS assay (AID 1671197); note: nearly all actives have a fitted effect of over 65% in size; note: potency is the fitted concentration of half-maximal effect
# Chain of UniProt P33261 (P33261 whole entry, looked up): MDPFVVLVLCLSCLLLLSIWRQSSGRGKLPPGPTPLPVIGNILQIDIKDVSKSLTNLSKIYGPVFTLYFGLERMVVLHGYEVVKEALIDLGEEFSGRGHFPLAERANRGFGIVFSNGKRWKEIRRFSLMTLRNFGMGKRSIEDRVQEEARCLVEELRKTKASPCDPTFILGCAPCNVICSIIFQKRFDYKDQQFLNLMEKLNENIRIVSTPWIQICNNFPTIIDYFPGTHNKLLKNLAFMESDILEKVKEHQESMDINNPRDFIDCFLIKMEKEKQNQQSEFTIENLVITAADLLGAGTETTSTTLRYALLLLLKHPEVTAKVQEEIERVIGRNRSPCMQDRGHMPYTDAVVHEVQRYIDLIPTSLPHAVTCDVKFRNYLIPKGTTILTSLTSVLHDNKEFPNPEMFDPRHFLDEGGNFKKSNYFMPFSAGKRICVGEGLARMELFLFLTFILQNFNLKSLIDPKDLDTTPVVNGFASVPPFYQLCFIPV
# How it was run: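 Enzyme-substrate mix with proluciferin substrate (P450-Glo CYP2C19 system) preincubated with compounds 10 min at room temperature; NADPH regeneration solution added, 37C for 1 h; detection reagent stops reaction, luminescence read after 20 min. Ketoconazole positive control.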
# [4] = target: Cytochrome P450 2C9 (Homo sapiens) (UniProt P11712); test: Cytochrome P450 Family 2 Subfamily C Member 9 (CYP2C9) small molecule antagonists: luciferase reporter qHTS assay (AID 1671198); note: nearly all actives have a fitted effect of over 50% in size; note: potency is the fitted concentration of half-maximal effect
# Chain of UniProt P11712 (P11712 whole entry, looked up): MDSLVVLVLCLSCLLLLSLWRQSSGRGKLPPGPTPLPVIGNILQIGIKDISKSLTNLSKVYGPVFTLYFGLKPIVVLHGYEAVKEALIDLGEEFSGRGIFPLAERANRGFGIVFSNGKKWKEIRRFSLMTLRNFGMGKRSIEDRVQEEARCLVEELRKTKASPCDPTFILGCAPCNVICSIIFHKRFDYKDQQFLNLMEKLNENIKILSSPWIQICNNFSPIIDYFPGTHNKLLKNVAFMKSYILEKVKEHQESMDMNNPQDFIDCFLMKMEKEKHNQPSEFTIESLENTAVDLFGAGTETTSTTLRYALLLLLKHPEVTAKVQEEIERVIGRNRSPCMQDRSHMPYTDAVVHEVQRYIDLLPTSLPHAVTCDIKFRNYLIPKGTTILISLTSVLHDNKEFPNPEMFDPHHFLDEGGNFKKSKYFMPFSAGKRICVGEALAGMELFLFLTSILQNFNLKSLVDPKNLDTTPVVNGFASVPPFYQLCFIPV
# How it was run: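 P450-Glo proluciferin substrate with CYP2C9 enzyme; 10 min RT preincubation, then NADPH regeneration 1 h at 37C; luciferin detection reagent 20 min RT, luminescence in relative luminescence units.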
# [5] = target: Nuclear receptor subfamily 1 group I member 2 (Homo sapiens) (UniProt O75469); test: CYP3A4 induction through human pregnane X receptor (PXR) by small molecules, qHTS assay (AID 1346984); note: potency is the fitted concentration of half-maximal effect; nearly all actives have a fitted effect of over 40% in size
# How it was run: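 qHTS, concentration-response format: HepG2 DPX-2 line, PXR/CYP3A4-luc. Exposure 24 h, 37C. Substrate Luciferin-IPA 3uM final, 3 h. Detection One-Glo, 30 min RT.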
# [6] = target: Cytochrome P450 1A2 (Homo sapiens) (UniProt P05177); test: Cytochrome P450 Family 1 Subfamily A Member 2 (CYP1A2) small molecule antagonists: luciferase reporter qHTS assay (AID 1671199); note: nearly all actives have a fitted effect of over 50% in size; note: potency is the fitted concentration of half-maximal effect
# Chain of UniProt P05177 (P05177 whole entry, looked up): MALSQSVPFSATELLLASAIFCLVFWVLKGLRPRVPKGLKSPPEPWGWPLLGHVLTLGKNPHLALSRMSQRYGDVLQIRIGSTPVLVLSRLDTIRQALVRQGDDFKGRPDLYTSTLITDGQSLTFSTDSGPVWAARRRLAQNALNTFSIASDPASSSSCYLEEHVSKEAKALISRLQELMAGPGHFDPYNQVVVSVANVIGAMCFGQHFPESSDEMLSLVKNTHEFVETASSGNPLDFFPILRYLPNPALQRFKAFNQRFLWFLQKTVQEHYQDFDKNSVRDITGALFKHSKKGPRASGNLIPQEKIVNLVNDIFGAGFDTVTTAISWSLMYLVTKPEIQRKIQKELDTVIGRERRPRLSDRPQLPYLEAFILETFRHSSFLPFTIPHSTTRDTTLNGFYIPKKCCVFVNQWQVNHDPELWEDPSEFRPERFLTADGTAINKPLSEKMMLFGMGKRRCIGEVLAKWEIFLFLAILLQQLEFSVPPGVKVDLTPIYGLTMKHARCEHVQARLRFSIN
# How it was run: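 CYP1A2 turnover of a luminogenic substrate was quantified after 1 h with NADPH regeneration at room temperature. Furafylline served as positive control.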
# [7] = target: Nuclear receptor subfamily 1 group I member 2 (Homo sapiens) (UniProt O75469); test: Human pregnane X receptor (PXR) activation by small molecules, qHTS assay (AID 1346985); note: nearly all actives have a fitted effect of over 40% in size
# How it was run: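 DPX-2 cells (HepG2 co-transfected with a PXR response element and a CYP3A4-promoter luciferase construct) were seeded at 2,000 per well, rested 5 hr at 37C, then exposed to DMSO-dissolved compounds for 24 hr. Activation was read as luciferase luminescence.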
# [8] = target: Cytochrome P450 2D6 (Homo sapiens) (UniProt P10635); test: Cytochrome P450 Family 2 Subfamily D Member 6 (CYP2D6) small molecule antagonists: luciferase reporter qHTS assay (AID 1671196); note: potency is the fitted concentration of half-maximal effect; nearly all actives have a fitted effect of over 50% in size
# Chain of UniProt P10635 (P10635 whole entry, looked up): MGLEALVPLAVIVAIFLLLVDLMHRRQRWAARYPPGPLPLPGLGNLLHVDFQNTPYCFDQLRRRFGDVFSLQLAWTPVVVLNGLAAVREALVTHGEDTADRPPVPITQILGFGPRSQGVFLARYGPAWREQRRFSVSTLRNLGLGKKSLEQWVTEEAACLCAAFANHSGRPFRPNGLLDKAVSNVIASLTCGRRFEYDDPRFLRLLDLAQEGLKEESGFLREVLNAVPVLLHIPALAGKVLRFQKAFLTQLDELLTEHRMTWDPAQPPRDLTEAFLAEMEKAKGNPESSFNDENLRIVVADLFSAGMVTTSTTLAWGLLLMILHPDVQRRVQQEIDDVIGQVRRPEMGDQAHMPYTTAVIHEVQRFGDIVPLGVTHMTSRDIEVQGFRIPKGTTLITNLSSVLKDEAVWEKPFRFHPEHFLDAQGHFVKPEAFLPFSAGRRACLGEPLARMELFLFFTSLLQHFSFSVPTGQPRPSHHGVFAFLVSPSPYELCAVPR
# How it was run: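 Luminescence (RLU), read 20 min after detection reagent, indicated CYP2D6 conversion of proluciferin to luciferin during a 1 h NADPH-dependent reaction at room temperature.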
# [9] = target: Voltage-gated inwardly rectifying potassium channel KCNH2 (Homo sapiens) (UniProt Q12809); test: Human Ether-a-go-go-Related Gene (hERG) channel small molecule antagonists: fluorescence cell-based qHTS assay (AID 1671200); note: nearly all actives have a fitted effect of over 50% in size; note: potency is the fitted concentration of half-maximal effect
# Chain of UniProt Q12809 (Q12809 whole entry, looked up): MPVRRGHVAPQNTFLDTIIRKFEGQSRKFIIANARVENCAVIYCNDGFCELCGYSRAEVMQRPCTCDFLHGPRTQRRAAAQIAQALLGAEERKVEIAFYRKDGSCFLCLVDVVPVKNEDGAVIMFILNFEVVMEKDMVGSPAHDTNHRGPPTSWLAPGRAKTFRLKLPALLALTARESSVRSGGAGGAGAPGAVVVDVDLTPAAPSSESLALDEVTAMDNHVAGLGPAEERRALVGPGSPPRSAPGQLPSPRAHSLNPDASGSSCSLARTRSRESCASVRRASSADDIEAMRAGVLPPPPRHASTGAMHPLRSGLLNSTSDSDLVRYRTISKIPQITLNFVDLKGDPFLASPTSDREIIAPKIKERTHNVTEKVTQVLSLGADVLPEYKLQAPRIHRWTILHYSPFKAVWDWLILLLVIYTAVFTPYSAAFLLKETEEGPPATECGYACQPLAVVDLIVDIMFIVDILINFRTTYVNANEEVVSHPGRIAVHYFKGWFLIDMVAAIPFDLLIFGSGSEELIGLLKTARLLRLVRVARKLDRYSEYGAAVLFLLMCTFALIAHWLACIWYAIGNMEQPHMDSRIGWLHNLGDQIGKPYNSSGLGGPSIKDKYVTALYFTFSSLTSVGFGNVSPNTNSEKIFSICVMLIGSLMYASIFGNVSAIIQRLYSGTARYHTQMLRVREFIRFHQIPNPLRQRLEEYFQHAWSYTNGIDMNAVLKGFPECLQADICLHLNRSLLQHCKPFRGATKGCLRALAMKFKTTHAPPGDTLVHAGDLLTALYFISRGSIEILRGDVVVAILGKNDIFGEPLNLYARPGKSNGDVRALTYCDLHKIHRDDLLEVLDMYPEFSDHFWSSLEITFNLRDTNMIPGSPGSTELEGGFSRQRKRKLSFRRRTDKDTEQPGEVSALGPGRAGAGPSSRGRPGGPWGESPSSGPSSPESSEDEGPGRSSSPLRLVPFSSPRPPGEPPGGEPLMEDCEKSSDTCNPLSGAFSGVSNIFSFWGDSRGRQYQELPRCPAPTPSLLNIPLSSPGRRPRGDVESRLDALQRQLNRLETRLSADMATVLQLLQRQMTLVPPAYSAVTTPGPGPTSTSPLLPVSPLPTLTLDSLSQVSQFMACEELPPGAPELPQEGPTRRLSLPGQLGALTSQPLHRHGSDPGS
# How it was run: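 Thallium served as the potassium surrogate; its influx into dye-loaded U2OS cells carrying the channel was measured by fluorescence over 2 min.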
# [10] = target: Cytochrome P450 3A4 (Homo sapiens) (UniProt P08684); test: Cytochrome P450 Family 3 Subfamily A Member 4 (CYP3A4) small molecule antagonists: luciferase reporter qHTS assay (AID 1671201); note: nearly all actives have a fitted effect of over 50% in size; note: potency is the fitted concentration of half-maximal effect
# Chain of UniProt P08684 (P08684 whole entry, looked up): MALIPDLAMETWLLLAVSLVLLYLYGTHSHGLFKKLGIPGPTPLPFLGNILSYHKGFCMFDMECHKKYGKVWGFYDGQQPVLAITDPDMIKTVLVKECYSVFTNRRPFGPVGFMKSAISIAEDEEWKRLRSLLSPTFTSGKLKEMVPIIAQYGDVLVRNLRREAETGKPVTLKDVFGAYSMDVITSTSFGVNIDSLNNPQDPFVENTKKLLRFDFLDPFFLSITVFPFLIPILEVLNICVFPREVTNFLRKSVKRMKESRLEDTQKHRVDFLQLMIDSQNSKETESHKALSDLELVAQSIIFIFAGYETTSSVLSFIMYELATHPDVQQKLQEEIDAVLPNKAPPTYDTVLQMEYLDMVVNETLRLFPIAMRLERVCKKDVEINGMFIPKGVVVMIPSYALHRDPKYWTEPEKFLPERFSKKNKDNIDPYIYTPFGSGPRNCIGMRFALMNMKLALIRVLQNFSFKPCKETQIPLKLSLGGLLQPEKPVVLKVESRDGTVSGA
# How it was run: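 Relative luminescence units after 20 min with luciferin detection reagent served as read-out. Beforehand, CYP3A4 turned over a proluciferin substrate for 1 h at room temperature with NADPH regeneration, following 10 min compound preincubation.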
# [11] = Caspase-3/7 induction in HepG2 cells by small molecules, qHTS assay (AID 1346978); note: nearly all actives have a fitted effect of over 15% in size; note: potency is the fitted concentration of half-maximal effect
# How it was run: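 Wild-type HepG2 cells, 2,000/well, settled 5 hr at 37 C and 5% CO2, then compound-treated for 17 hr; caspase-3/7 activity read by luminescent Caspase-Glo 3/7 after 30 min at room temperature.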
# [12] = Caspase-3/7 induction in HepG2 cells by small molecules, qHTS cell viability counter screen (AID 1346981); note: nearly all actives have a fitted effect of over 30% in size; note: potency is the fitted concentration of half-maximal effect
# How it was run: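 Multiplexed with the caspase-3/7 assay: HepG2 cells, 16 hr compound treatment, CellTiter-Fluor viability detection by fluorescence.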
# [13] = Caspase-3/7 induction in CHO-K1 cells by small molecules, qHTS cell viability counter screen (AID 1346979); note: potency is the fitted concentration of half-maximal effect; nearly all actives have a fitted effect of over 35% in size
# How it was run: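 Viability readout by fluorescence (CellTiter-Fluor) on wild-type CHO-K1 cells exposed for 16hr at 37C and 5% CO2 to compounds delivered in DMSO; reagent incubated 1hr before reading.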
# Tags give direction and shape of the fitted curve.
smiles,measurement,setting,value
COc1cc2ncnc(Nc3cccc(Cl)c3)c2cc1OC,Potency,[1],"inconclusive: 14.6 µM [cytotoxic, single point]"
same,Potency,[2],inconclusive: 14.6 µM [activator]
same,Potency,[3],"inconclusive: 19 µM [inhibitor, single point]"
same,Potency,[4],"inconclusive: 15.1 µM [inhibitor, partial curve]"
Cn1cc[nH]c1=S,Potency,[1],"inconclusive: 70.8 µM [cytotoxic, partial curve, poor fit]"
same,Potency,[2],"inconclusive: 68.5 µM [activator, single point]"
same,Potency,[3],"inconclusive: 89.3 µM [inhibitor] and inconclusive: 89.4 µM [inhibitor, single point]"
CC(=O)N[C@H]1[C@H]([C@H](O)[C@H](O)CO)OC(C(=O)O)=C[C@@H]1N=C(N)N,Potency,[1],inactive
same,Potency,[5],"inconclusive: 28.2 µM [activator, single point]"
ON=C1CCCCC1,Potency,[1],"inconclusive: 68.6 µM [cytotoxic, partial curve, poor fit]"
same,Potency,[2],"inconclusive: 61.1 µM [activator, partial curve, poor fit]"
same,Potency,[4],"inconclusive: 71.7 µM [inhibitor, partial curve, poor fit]"
same,Potency,[6],active: 32 µM and inactive
Cc1nc2ccccc2n1Cc1ccc(Cl)cc1,Potency,[1],"inconclusive: 9.44 µM [cytotoxic, partial curve]"
same,Potency,[2],"inconclusive: 11.9 µM [activator, partial curve]"
same,Potency,[7],inactive
same,Potency,[4],active: 13.8 µM
CCC(C)c1cc(C(C)(C)C)c(O)c(C(C)(C)C)c1 (stereo unspecified),Potency,[1],inactive
same,Potency,[8],"inconclusive: 34.9 µM [inhibitor, partial curve]"
same,Potency,[3],inactive
same,Potency,[4],"inconclusive: 55.3 µM [inhibitor, partial curve, poor fit]"
same,Potency,[9],"inconclusive: 7.61 µM [inhibitor, full curve]"
same,Potency,[10],active: 19.6 µM
CCCOC(=O)c1ccc(N)cc1,Potency,[1],inactive
same,Potency,[8],"inconclusive: 27.5 µM [inhibitor, partial curve, poor fit]"
same,Potency,[10],"inconclusive: 38.9 µM [inhibitor, single point]"
NCC(=O)CCC(=O)O,Potency,[1],inactive
same,Potency,[7],inactive
OC(CCN1CCCCC1)(c1ccccc1)C1CCCCC1 (stereo unspecified),Potency,[1],"inconclusive: 9.44 µM [cytotoxic, full curve]"
same,Potency,[2],"inconclusive: 7.5 µM [activator, partial curve]"
same,Potency,[8],active: 0.977 µM
same,Potency,[3],"inconclusive: 38.9 µM [inhibitor, single point]"
Cc1ccc(-c2ccccc2C#N)cc1,Potency,[1],inactive
same,Potency,[3],active: 17.4 µM
OC(CCCN1CCCCC1)(c1ccccc1)c1ccccc1,Potency,[1],"inconclusive: 33.5 µM [cytotoxic, single point]"
same,Potency,[3],"inconclusive: 34.7 µM [inhibitor, partial curve, poor fit]"
same,Potency,[10],"inconclusive: 6.92 µM [inhibitor, full curve, poor fit]"
C=C(C)C(=O)OCCC(C)OC(=O)C(=C)C (stereo unspecified),Potency,[1],inactive
same,Potency,[4],"inconclusive: 31.7 µM [inhibitor, partial curve]"
CC(=O)O[C@H]1C[C@@H]2CC[C@@]1(C)C2(C)C,Potency,[1],inactive
same,Potency,[6],"inconclusive: 63.3 µM [inhibitor, partial curve]"
CCC1(C)NC(=O)NC1=O (stereo unspecified),Potency,[1],inactive
same,Potency,[4],"inconclusive: 44.8 µM [inhibitor, partial curve, poor fit]"
same,Potency,[6],"inconclusive: 35.6 µM [inhibitor, partial curve]"
same,Potency,[9],inactive
CCc1c2c(nc3ccc(OC(=O)N4CCC(N5CCCCC5)CC4)cc13)-c1cc3c(c(=O)n1C2)COC(=O)[C@]3(O)CC,Potency,[11],inconclusive: 29.8 µM [activator]
same,Potency,[12],"inconclusive: 29.8 µM [cytotoxic, partial curve]"
CCc1cccc(N(C)C(N)=Nc2cccc3ccccc23)c1,Potency,[1],"inconclusive: 23.7 µM [cytotoxic, partial curve]"
same,Potency,[9],"inconclusive: 10.7 µM [inhibitor, partial curve]"
CC(C)=CC(=O)O,Potency,[1],inactive
same,Potency,[6],"inconclusive: 56.4 µM [inhibitor, partial curve, poor fit]"
Fc1c(F)c(F)c(Br)c(F)c1F,Potency,[1],"inconclusive: 68.6 µM [cytotoxic, single point]"
same,Potency,[6],"inconclusive: 35.6 µM [inhibitor, partial curve]"
CN(C)CCCOc1nn(Cc2ccccc2)c2ccccc12,Potency,[1],active: 26.6 µM
same,Potency,[9],active: 4.25 µM
C=CC(=O)CC,Potency,[11],inactive
CN(C)C/C=C(/c1ccc(Br)cc1)c1cccnc1,Potency,[1],"inconclusive: 33.5 µM [cytotoxic, single point]"
same,Potency,[9],active: 13.4 µM
NC(N)=NC(=O)c1nc(Cl)c(N)nc1N,Potency,[1],"inconclusive: 50.1 µM [cytotoxic, partial curve] and inconclusive: 44.9 µM [cytotoxic, partial curve] and inconclusive: 29.8 µM [cytotoxic, single point]"
same,Potency,[4],inactive
same,Potency,[6],"inconclusive: 40.2 µM [inhibitor, partial curve] and inconclusive: 58.5 µM [inhibitor]"
CC/C=C\CCOC(=O)CCCCC,Potency,[1],inactive
same,Potency,[3],"inconclusive: 71 µM [inhibitor, partial curve]"
same,Potency,[6],inconclusive: 71 µM [inhibitor]
CN(C)C(=O)C(CCN1CCC(O)(c2ccc(Cl)cc2)CC1)(c1ccccc1)c1ccccc1,Potency,[11],inconclusive: 33.5 µM [activator]
same,Potency,[13],"inconclusive: 29.8 µM [cytotoxic, single point]"
same,Potency,[3],"inconclusive: 38.9 µM [inhibitor, single point]"
same,Potency,[4],"inconclusive: 24.5 µM [inhibitor, partial curve, poor fit]"
Cc1ccccc1C(OCCN(C)C)c1ccccc1 (stereo unspecified),Potency,[1],"inconclusive: 27.3 µM [cytotoxic, partial curve]"
same,Potency,[3],"inconclusive: 89.4 µM [inhibitor, single point]"
same,Potency,[4],"inconclusive: 89.4 µM [inhibitor, single point] and inactive"
same,Potency,[6],"inconclusive: 30.9 µM [inhibitor, partial curve]"
CC(=O)OCCC(C)C,Potency,[1],inactive
same,Potency,[3],"inconclusive: 89.4 µM [inhibitor, single point]"
same,Potency,[4],"inconclusive: 89.4 µM [inhibitor, single point]"
same,Potency,[6],"inconclusive: 63.3 µM [inhibitor, partial curve]"
CC(C)(C)C(=O)CCc1ccc(Cl)cc1,Potency,[1],inactive
same,Potency,[4],"inconclusive: 35.6 µM [inhibitor, partial curve, poor fit]"
same,Potency,[10],inactive
CCC(C)(CCC(C)C)C(=O)O (stereo unspecified),Potency,[1],inactive
same,Potency,[10],inactive
CCC(C)(CCCC(C)C)OC(C)=O (stereo unspecified),Potency,[1],"inconclusive: 27.3 µM [cytotoxic, single point]"
same,Potency,[3],"inconclusive: 79.6 µM [inhibitor, single point]"
same,Potency,[6],inactive
CCN[C@H]1C[C@H](C)S(=O)(=O)c2sc(S(N)(=O)=O)cc21,Potency,[11],inactive
same,Potency,[12],inactive
same,Potency,[3],"inconclusive: 17.4 µM [inhibitor, single point]"
same,Potency,[4],inactive
same,Potency,[6],inactive
NC(=S)NNC(N)=S,Potency,[1],"inconclusive: 30.6 µM [rising, partial curve, poor fit]"
same,Potency,[4],"inconclusive: 27.5 µM [inhibitor, full curve]"
same,Potency,[6],"inconclusive: 61.7 µM [inhibitor, partial curve, poor fit]"
CC1=NS(=O)(=O)c2cc(Cl)ccc2N1,Potency,[1],inactive
same,Potency,[4],inactive
same,Potency,[6],active: 15.5 µM
CCCCCCOC(=O)CCC,Potency,[11],inactive
Fc1ccc(Br)cc1,Potency,[1],inactive
same,Potency,[4],"inconclusive: 80.4 µM [inhibitor, partial curve, poor fit]"
Cc1cccc(C)n1,Potency,[1],inactive
same,Potency,[4],inactive
Cc1ccc(C(=O)Nc2ccc(S(=O)(=O)O)c3cc(S(=O)(=O)O)cc(S(=O)(=O)O)c23)cc1NC(=O)c1cccc(NC(=O)Nc2cccc(C(=O)Nc3cc(C(=O)Nc4ccc(S(=O)(=O)O)c5cc(S(=O)(=O)O)cc(S(=O)(=O)O)c45)ccc3C)c2)c1,Potency,[11],inactive
same,Potency,[12],inactive
same,Potency,[8],"inconclusive: 43.6 µM [inhibitor, single point]"
O=CNc1ccccc1,Potency,[1],"inconclusive: 69.4 µM [cytotoxic, single point]"
same,Potency,[3],"inconclusive: 90.4 µM [inhibitor, single point]"
same,Potency,[6],"inconclusive: 80.6 µM [inhibitor, partial curve, poor fit]"
CCc1ccc(O)c(OC)c1,Potency,[11],inactive
same,Potency,[2],inactive
same,Potency,[3],"inconclusive: 89.4 µM [inhibitor, single point]"
[Cl][Eu]([Cl])[Cl],Potency,[1],inactive
same,Potency,[4],inactive
Cc1cccc(O)c1,Potency,[1],inactive
same,Potency,[6],"inconclusive: 65.6 µM [inhibitor, partial curve, poor fit] and inconclusive: 39.9 µM [inhibitor]"
CCCCCCCCOCCCN,Potency,[1],active: 61.1 µM
same,Potency,[9],active: 43.6 µM
same,Potency,[10],"inconclusive: 31.7 µM [inhibitor, partial curve]"
CC(=O)c1sc(C)nc1C,Potency,[11],inactive
same,Potency,[12],"inconclusive: 19.3 µM [rising, partial curve, poor fit]"
same,Potency,[4],inactive
C=CC(C)CCC=C(C)C (stereo unspecified),Potency,[1],inactive
same,Potency,[6],"inconclusive: 34.7 µM [inhibitor, partial curve]"
CC(CCl)OC(C)CCl (stereo unspecified),Potency,[1],inactive
same,Potency,[4],inactive
same,Potency,[9],inactive
CC[N+](CC)(CC)CCOc1cccc(OCC[N+](CC)(CC)CC)c1OCC[N+](CC)(CC)CC,Potency,[1],inactive
same,Potency,[6],inactive
